Common to all, as to assay: Viability of human cancer cell lines after 72 h of drug (GDSC screen)
Compound in experiment [1]: NCC(=O)Nc1ccc(-n2nc(C(F)(F)F)cc2-c2ccc3c(ccc4ccccc43)c2)cc1 [OSU-03012]
The following applies: top dose 16 µM; top dose inferred. The method, then:
(§1)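 Human cancer cell lines in 384-well plates, medium with 10% serum, drug for 72 h over a 256-fold dose range (nine 2-fold or five 4-fold steps up to the top dose). Adherent lines were fixed and stained with the nucleic acid dye Syto60, suspension lines read with resazurin; signal relative to control wells, capped at 0 and 100%. One two-parameter sigmoid per drug and line, fitted in a mixed model over all curves with the slope shared within a line.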

Compound in experiment [2]: Fc1cc(-c2ccnc(Nc3ccc(-n4cnc(N5CCOCC5)n4)cc3)n2)cc(N2CCOCC2)c1 [JNK-9L]
The following applies: top dose 5.12 µM; top dose inferred. The method, then: as §1

Compound in experiment [3]: OC[C@H](Cc1ccccc1)Nc1nc(Oc2ccc3c(c2)CCC3)nc2c1ncn2Cc1ccc(-c2ccccc2)cc1 [QS11]
To be noted: top dose 10.24 µM. The method, then:
as §1

Compound in experiment [4]: C#Cc1cccc(Nc2ncnc3cc(OC)c(OCCCCCCC(=O)NO)cc23)c1 [CUDC-101]
The following applies: top dose 5.12 µM; top dose inferred. The method, then: as §1

Compound in experiment [5]: CC(C)(C)c1cc(NC(=O)Nc2ccc(-c3cn4c(n3)sc3cc(OCCN5CCOCC5)ccc34)cc2)no1 [AC220]
To be noted: top dose 1.024 µM; top dose inferred. On the procedure: as §1

Compound in experiment [6]: COc1cc(F)c(F)c(Nc2ccc(I)cc2F)c1NS(=O)(=O)C1(C[C@H](O)CO)CC1 [RDEA119]
The following applies: top dose 5 µM, top dose inferred. The method, then: as §1

Compound in experiment [7]: O=c1[nH]cc(F)c(=O)[nH]1 [5-Fluorouracil]
To be noted: top dose 32 µM; top dose inferred. On the procedure: as §1

The IC50 comes from the fitted curve, where viability falls to half of the control; a fit beyond the top or the lowest dose is shown as a bound at that dose. AUC, from the same fit, is the share of area under the viability curve across the 256-fold dose range: 1 means no effect, lower means more sensitive. For some assays here: The top dose, if marked as inferred, comes from the curve model; the source does not state it. For some assays here: Drugs with an entry number were screened twice under separate entries, and the two screens often disagree.

The IC50 is the concentration needed to halve the response being measured. Take MN-60 (B-cell leukaemia, suspension): the AUC stood at 0.686 in experiment [1]; 0.646 in experiment [2]; 0.907 in experiment [3]; 0.42 in experiment [4]; 0.977 in experiment [5]; 0.986 in experiment [6] (screen: GDSC drug entry 1014). The values for the AUC in experiment [6] (screen: GDSC drug entry 1526) and in experiment [7] were 0.978 and 0.805, respectively. In addition, the half-maximal inhibitory concentration (IC50) is 3.4 µM in experiment [1]; 0.827 µM in experiment [2]; more than 10.2 µM in experiment [3]; 0.192 µM in experiment [4]; more than 1.02 µM in experiment [5]; more than 5 µM in experiment [6] (screen: GDSC drug entry 1014). The 50% inhibitory concentration (IC50) in experiment [6] (screen: GDSC drug entry 1526) is more than 5 µM; in experiment [7], 16.9 µM.

As for MOG-G-CCM (glioma, adherent), the AUC in experiment [1] is 0.785; in experiment [2] it was 0.522; in experiment [3], 0.983; in experiment [4], 0.496; in experiment [5] it was 0.975; in experiment [6] (screen: GDSC drug entry 1014) it was 0.926. The results for the AUC in experiment [6] (screen: GDSC drug entry 1526) and in experiment [7] were 0.926 and 0.859, respectively. Besides, the IC50 in experiment [1] was 8.12 µM; in experiment [2], 0.37 µM; in experiment [3], more than 10.2 µM; in experiment [4] it was 0.312 µM; in experiment [5] it was more than 1.02 µM; in experiment [6] (screen: GDSC drug entry 1014), more than 5 µM. Also, the IC50 is more than 5 µM in experiment [6] (screen: GDSC drug entry 1526) and more than 32 µM in experiment [7].

On to MOG-G-UVW (glioma, adherent), for which the AUC in experiment [1] is 0.728; in experiment [2], 0.597; in experiment [3], 0.973; in experiment [4], 0.506; in experiment [5], 0.987; in experiment [6] (screen: GDSC drug entry 1014) it was 0.831. Further, the figures for the AUC in experiment [6] (screen: GDSC drug entry 1526) and in experiment [7] were 0.815 and 0.743, respectively. Moreover, the IC50 in experiment [1] is 4.36 µM; in experiment [2], 0.586 µM; in experiment [3] it was more than 10.2 µM; in experiment [4] it was 0.333 µM; in experiment [5], more than 1.02 µM; in experiment [6] (screen: GDSC drug entry 1014), 3.05 µM. For the same cell line, the figures for the IC50 in experiment [6] (screen: GDSC drug entry 1526) and in experiment [7] were 2.66 µM and 9.67 µM, respectively.

On to MOLP-8 (myeloma, suspension), for which the AUC in experiment [1] was 0.724; in experiment [2] it was 0.347; in experiment [3], 0.742; in experiment [4], 0.219; in experiment [5], 0.964; in experiment [6] (screen: GDSC drug entry 1014), 0.765. Besides, the AUC was determined as 0.813 in experiment [6] (screen: GDSC drug entry 1526) and 0.511 in experiment [7]. The IC50 was 4.19 µM in experiment [1]; 0.123 µM in experiment [2]; 3.06 µM in experiment [3]; 0.0502 µM in experiment [4]; more than 1.02 µM in experiment [5]; 1.76 µM in experiment [6] (screen: GDSC drug entry 1014). The values for the IC50 in experiment [6] (screen: GDSC drug entry 1526) and in experiment [7] were 2.57 µM and 2.15 µM, respectively.

On to MPP-89 (mesothelioma, adherent), for which the AUC in experiment [1] amounted to 0.819; in experiment [2], 0.801; in experiment [3], 0.938; in experiment [4], 0.436; in experiment [5] it was 0.981; in experiment [6] (screen: GDSC drug entry 1014) it was 0.774. The results for the AUC in experiment [6] (screen: GDSC drug entry 1526) and in experiment [7] were 0.895 and 0.972, respectively. The IC50 in experiment [1] was 13 µM; in experiment [2], 3.42 µM; in experiment [3], more than 10.2 µM; in experiment [4], 0.203 µM; in experiment [5], more than 1.02 µM; in experiment [6] (screen: GDSC drug entry 1014), 2.59 µM. In addition, the IC50 is more than 5 µM in experiment [6] (screen: GDSC drug entry 1526) and more than 32 µM in experiment [7].

Turning to MRK-nu-1 (breast, suspension), the AUC in experiment [1] turned out to be 0.722; in experiment [2] it was 0.547; in experiment [3] it was 0.944; in experiment [4], 0.784; in experiment [5], 0.99; in experiment [6] (screen: GDSC drug entry 1014), 0.988. For the same cell line, the AUC is 0.989 in experiment [6] (screen: GDSC drug entry 1526) and 0.442 in experiment [7]. Further, the IC50 is 4.01 µM in experiment [1]; 0.424 µM in experiment [2]; more than 10.2 µM in experiment [3]; 1.98 µM in experiment [4]; more than 1.02 µM in experiment [5]; more than 5 µM in experiment [6] (screen: GDSC drug entry 1014). For the same cell line, the 50% inhibitory concentration (IC50) is more than 5 µM in experiment [6] (screen: GDSC drug entry 1526) and 1.41 µM in experiment [7].

MS751 (cervix, adherent): the AUC stood at 0.774 in experiment [1]; 0.572 in experiment [2]; 0.966 in experiment [3]; 0.697 in experiment [4]; 0.99 in experiment [5]; 0.969 in experiment [6] (screen: GDSC drug entry 1014). For the same cell line, the figures for the AUC in experiment [6] (screen: GDSC drug entry 1526) and in experiment [7] were 0.939 and 0.972, respectively. For the same cell line, the IC50 in experiment [1] is 5.81 µM; in experiment [2], 0.494 µM; in experiment [3], more than 10.2 µM; in experiment [4], 1.09 µM; in experiment [5] it was more than 1.02 µM; in experiment [6] (screen: GDSC drug entry 1014), more than 5 µM. In addition, the results for the IC50 in experiment [6] (screen: GDSC drug entry 1526) and in experiment [7] were more than 5 µM and more than 32 µM, respectively.

In the case of “MS-1 (small cell lung carcinoma, suspension)”, the AUC amounted to 0.848 in experiment [1]; 0.808 in experiment [2]; 0.928 in experiment [3]; 0.321 in experiment [4]; 0.975 in experiment [5]; 0.986 in experiment [6] (screen: GDSC drug entry 1014). Moreover, the AUC in experiment [6] (screen: GDSC drug entry 1526) was 0.99; in experiment [7], 0.619. Further, the IC50 was 10 µM in experiment [1]; 2.32 µM in experiment [2]; more than 10.2 µM in experiment [3]; 0.108 µM in experiment [4]; more than 1.02 µM in experiment [5]; more than 5 µM in experiment [6] (screen: GDSC drug entry 1014). Moreover, the IC50 in experiment [6] (screen: GDSC drug entry 1526) is more than 5 µM; in experiment [7], 4.08 µM.
